Assay results from the supplement of paper PMC7826260.
The other results are listed elsewhere or left out. The data describe in vitro nicking of single-stranded DNA by Rep domains (1 h at 37 °C, 3 µM enzyme); the outer parts of the 90-letter strands are left off. Numbers give uncut DNA relative to the enzyme-free pool, as log2; strong cutting gives strongly negative numbers. There is no active / inactive call. Shares of all reads are compared; where an enzyme cuts many sequences, the uncut ones exceed 0.

These sequences were tested on T1, Rep nickase domain of maize striate mosaic virus (assay: uncleaved DNA left, log2 of reads against the no-enzyme library (log2 ratio); higher = less cleavage (more negative = more Rep cleavage of the k-mer); sequences stand for … in CTCGTCCG…ACCGGAGA).
T1 sequence (residues 1-117, tag not shown): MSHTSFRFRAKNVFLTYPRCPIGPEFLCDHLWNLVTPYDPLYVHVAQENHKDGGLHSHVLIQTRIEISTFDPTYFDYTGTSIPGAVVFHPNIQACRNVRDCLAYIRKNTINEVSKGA
Description: (§1)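 A pool of 90-nt single-stranded DNAs with seven random bases just before the constant AC of the nick site (name = the seven bases) was cut by 3 µM recombinant His6-SUMO-tagged Rep nickase domain (300 nM DNA, 50 mM HEPES pH 8.0, 50 mM NaCl, 1 mM MnCl2, 1 h, 37 °C, three replicates). Uncut DNA was amplified and sequenced.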

Sequence	uncleaved DNA left (log2)
ACAGCTG	0.88
AATCGTC	-1.03
TCGCAGA	-0.64
GCATGAA	-0.203
CGCCCGC	-0.259
GAAACGG	2.08
TGCCGAG	1.04
TGCATTC	-0.457
CTACAAC	-0.835
ATTTGCG	1.87
GGAACTA	2.13
CAGGCCG	-0.945
CGGTGAA	1.09
TCGGCGT	-1.1
TCCACTC	-0.618
GTACAGC	1.33
AGGTCCT	0.893
CGCTCTC	-0.24
CCGCTCT	-0.337
CCGGATA	0.972

Sequence	uncleaved DNA left (log2)
ACACGCC	-0.61
TCCTACC	-0.458
CGACCGT	-0.167
GCGTTCT	0.0378
AAACTGT	0.968
TCGTCTC	0.0257
CAAACTA	-0.589
ACTAGCC	-0.755
AGAGGTG	0.00593
CACTGAC	0.214
ACGCGCG	0.811
GTGGAGT	1.77
TTTAGGG	0.536
AGCCCGT	1.01
TAGACTA	1.33
GGGGGTG	1.65
TGTCGGA	0.00635
GAAGCGG	1.06
TGTAACG	-1.1
ACATTTC	-1.05

These sequences were tested on T2, Rep nickase domain of porcine circovirus 2 in the same assay as above.
T2 sequence (residues 2-116, tag not shown): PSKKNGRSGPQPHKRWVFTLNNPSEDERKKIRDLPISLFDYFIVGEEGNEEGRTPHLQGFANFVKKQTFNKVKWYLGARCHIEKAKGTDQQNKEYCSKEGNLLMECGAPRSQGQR
Description: as §1

Sequence	uncleaved DNA left (log2)
ACAGCTG	0.213
AATCGTC	-0.0517
TCGCAGA	-0.102
GCATGAA	0.125
CGCCCGC	0.154
GAAACGG	0.146
TGCCGAG	0.00313
TGCATTC	0.146
CTACAAC	-0.111
ATTTGCG	0.0233
GGAACTA	0.202
CAGGCCG	0.153
CGGTGAA	-0.0174
TCGGCGT	-0.0534
TCCACTC	-0.0359
GTACAGC	0.227
AGGTCCT	-1.71
CGCTCTC	-0.129
CCGCTCT	-0.171
CCGGATA	0.053

Sequence	uncleaved DNA left (log2)
ACACGCC	0.00434
TCCTACC	-2.9
CGACCGT	-0.0375
GCGTTCT	-2.41
AAACTGT	0.0728
TCGTCTC	-0.543
CAAACTA	-0.0797
ACTAGCC	0.158
AGAGGTG	0.0823
CACTGAC	0.0167
ACGCGCG	0.177
GTGGAGT	0.33
TTTAGGG	0.195
AGCCCGT	-0.0427
TAGACTA	-0.409
GGGGGTG	0.262
TGTCGGA	0.147
GAAGCGG	0.126
TGTAACG	0.104
ACATTTC	0.176

What follows are sequences tested on T3, Rep nickase domain of tomato golden mosaic virus in the same assay as above.
T3 sequence (residues 1-124, tag not shown): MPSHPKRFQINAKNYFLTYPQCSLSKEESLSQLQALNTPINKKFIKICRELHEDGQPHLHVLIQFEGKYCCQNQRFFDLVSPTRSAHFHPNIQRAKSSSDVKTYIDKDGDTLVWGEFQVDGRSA
Description: as §1

Sequence	uncleaved DNA left (log2)
ACAGCTG	0.25
AATCGTC	-0.0683
TCGCAGA	-0.0103
GCATGAA	0.121
CGCCCGC	-0.0546
GAAACGG	0.185
TGCCGAG	-0.0352
TGCATTC	-0.133
CTACAAC	-0.222
ATTTGCG	-0.137
GGAACTA	-0.0291
CAGGCCG	-0.0433
CGGTGAA	-0.0135
TCGGCGT	-0.299
TCCACTC	-0.12
GTACAGC	0.119
AGGTCCT	-0.0358
CGCTCTC	-0.181
CCGCTCT	-0.157
CCGGATA	-0.00855

Sequence	uncleaved DNA left (log2)
ACACGCC	-0.114
TCCTACC	-0.0489
CGACCGT	0.0202
GCGTTCT	-0.169
AAACTGT	0.0296
TCGTCTC	-0.256
CAAACTA	0.0339
ACTAGCC	0.0598
AGAGGTG	0.0318
CACTGAC	-0.164
ACGCGCG	0.000832
GTGGAGT	0.206
TTTAGGG	0.0453
AGCCCGT	-0.0331
TAGACTA	-0.0349
GGGGGTG	-0.0236
TGTCGGA	0.174
GAAGCGG	0.145
TGTAACG	-0.0416
ACATTTC	-0.0299
